Here are results for 25 compounds from PubChem BioAssay AID463173 (ICCB-Longwood Screening Facility, Harvard Medical School, 2010).

Out of some 52,000 compounds screened, about 1,700 (3.3%) were called active. No stated cut-off is given here; in the data, active means survival mostly below about 52% (no sharp cut-off); inactive means mostly above about 56%. This is one part of the list.

The subject of the assay is Wild type. The assay is described as follows: growth inhibition of S. aureus wild type versus tarO mutant, primary screen, teichoic acid synthesis inhibitors, RN4220, OD600 (AID 463173). Conditions: S. aureus RN4220 wild type/DeltatarO growth, OD600, 18 h, hits give low values, screened at 18.75 µg/mL (by protocol).
Turning to `Cc1cn(C)c(CC(=O)NCc2ccc(F)cc2)c1C(=O)O`, the survival is inactive: 78%.

In the case of `CCc1cccc(NC(=O)CNS(=O)(=O)c2ccc3nc(C)sc3c2)c1`, the survival was inactive: 72%.

For the compound `Cc1ccc(CSC2=Nc3ccccc3C3=NC(CC(=O)NC4CCCCC4)C(=O)N23)c(C)c1` (stereo not given), the survival was inactive: 76%.

`CCC(C)NC(=O)c1cn(CC)c2ccc(S(=O)(=O)N3CCCCC3)cc2c1=O` (stereo not given): the survival is inactive: 79%.

As to `Cc1ccc2nc(-c3ccncc3)c(Nc3ccccc3C)n2c1`, the survival was inactive: 101%.

In the case of `CC1=C(c2ccc(C)cc2)S(=O)(=O)N=C1N1CCN(c2ccccc2)CC1`, the survival was inactive: 85%.

Take `CN(Cc1ccccc1)S(=O)(=O)c1ccc(F)c(C(=O)Nc2ccccc2C(F)(F)F)c1`: the survival was active: -6%.

Regarding `Cc1ccc(C(NC(=O)Cc2cccs2)C(=O)Nc2ccc(C(C)C)cc2)cc1` (stereo not given), the survival was inactive: 82%.

For `Cc1cccc(-c2nc3c4ccccc4nc(NCc4ccccc4Cl)n3n2)c1`, the survival is inactive: 163%.

Turning to `Cc1cc(Nc2cccc(C(F)(F)F)c2)ncn1`, the survival is inactive: 80%.

Regarding `CCn1cc(C(=O)NCc2ccccc2)c(=O)c2cc(S(=O)(=O)N3CCCCC3)ccc21`, the survival was inactive: 84%.

Regarding `Cc1ccc(NS(=O)(=O)c2ccc3c4c(cccc24)C(=O)N3)c(C)c1`, the survival was inactive: 84%.

Regarding `O=C1OCc2c1[nH]c(=O)[nH]c2=O`, the survival is inactive: 102%.

In the case of `Nc1n[nH]c2nc(C(F)(F)F)cc(=O)n12`, the survival is inactive: 109%.

Consider `CNS(=O)(=O)c1cn(CC(=O)N2CCN(c3ccc(OC)cc3)CC2)cc1S(=O)(=O)NC`, for which the survival was inactive: 69%.

For the compound `O=C(COc1ccccc1)N(Cc1cccnc1)c1nc2ccc(Cl)cc2s1`, the survival is inactive: 82%.

For the compound `O=C(Nc1ccc(N2CCC(N3CCCCC3)CC2)c(C(=O)O)c1)c1ccccc1`, the survival was inactive: 70%.

As to `CC(C)NC(=O)c1ccc(Cn2c(=O)c3cccn3c3cccnc32)cc1`, the survival was inactive: 84%.

As for `COc1ccc(CC(=O)NC2CC(=O)N(c3ccc4c(c3)OCCO4)C2)cc1` (stereo not given), the survival was inactive: 136%.

As to `CCOCCCn1c(=N)c(S(=O)(=O)c2ccc(C)cc2)cc2c(=O)n3ccccc3nc21`, the survival was inactive: 125%.

In the case of `CCOC(=O)c1c(NC(=O)C(C)Sc2cn(CCNC(=O)c3ccc(OC)c(OC)c3)c3ccccc23)sc2c1CCC2` (stereo not given), the survival was inactive: 151%.

On to `Nc1c(C(=O)Nc2cccc(Cl)c2)sc2nc3c(cc12)CN(Cc1ccccc1)CC3`, for which the survival is inactive: 65%.

As to `O=C(CSc1nncn2c1cc1sccc12)Nc1ccccc1C(F)(F)F`, the survival was inactive: 111%.

`O=C(NCCC1=CCCCC1)c1ccc2c(c1)N(Cc1ccc(F)cc1)C(=O)c1ccccc1S2(=O)=O`: the survival is inactive: 145%.

Consider `CCn1c(=Nc2ccc(N3CCOCC3)cc2)ccc2ccccc21`, for which the survival was inactive: 100%.
